In PubChem BioAssay AID1963576 (National Center for Advancing Translational Sciences (NCATS), 2024):
About 60 (0.1%) of roughly 46,000 compounds were called active. Another 3% or so got no clear call; they are omitted. Calls follow the shape of the dose curve; as a rule, active = well fitted inhibition curve with a large enough effect; inconclusive = small, poorly fitted or top-dose-only effect; inactive = no such curve, though single readings can be large or run the other way. Some of the results follow.

Test: Primary qHTS assay for Inhibitors of ovarian cancer metastasis using an organotypic tumor microenvironment (TME) model. Also: nearly all actives have a fitted effect of over 65% in size.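 As to activity change, negative = inhibition: plate controls were DMSO wells for no effect and tomatine positive control wells for full effect.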
Conditions: SKOV3ip1-GFP adhesion/invasion on 3D omental model, fluorescence; series mostly up to 45.8 µM; activity change, negative = inhibition: at the top concentration
Outline: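 qHTS, 4-pt dose (0.36-46 umol/L); SKOV3ip1-GFP, 1,200 cells/well, no FBS; primary omental fibroblast/mesothelial co-culture 48 h pre-grown; 2 h RT + 16 h 37 C; PBS wash, 4% PFA; GFP count 488/509 nm.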

Activity change, negative = inhibition, inactive:
Cc1c(C(=O)NCc2ccccc2Cl)sc2nc[nH]c(=O)c12 12.4%, COc1ccc(CN(Cc2ccco2)c2cnc(S(C)(=O)=O)nc2C(=O)Nc2ccc(C)cc2C)cc1 1.31%, COc1ccc(S(=O)(=O)Nc2cc3c(cc2NCc2ccccc2)n(C)c(=O)n3C)cc1 -6.86%, CCOc1ccc(C(=O)Nc2ccc3oc(-c4cccnc4)nc3c2)cc1 5.85%, CCOCCCNC(=O)C(=O)Nc1c2c(nn1-c1ccc(OC)cc1)CSC2 2.41%, Cc1ccc2c(=O)c(C(=O)c3ccc(F)cc3)cn(CC(=O)NCCc3ccccc3)c2n1 -15.8%, Cc1nc(-c2ccc(S(=O)(=O)N3CCN(c4ccc(F)cc4)CC3)cc2)co1 -5.5%, CN1CCN(CCCNC(=O)c2ccc3nc(Cc4ccccc4)oc3c2)CC1 9.81%, Cc1ccc(-n2nc3c(=O)n(CCCC(=O)NCc4ccccc4F)nc(C)c3c2C)cc1 -23.8%, O=C(CSc1nc2ccncc2[nH]1)Nc1ccccc1C(F)(F)F 9.84%, O=C(Nc1c(C(=O)N2CCN(c3ccccc3F)CC2)oc2ccccc12)c1ccccc1F -5.97%, Cc1csc2nc(COC(=O)CNC(=O)c3ccccc3Cl)cc(=O)n12 -14%, COc1cccc2c1Oc1ncccc1N(C(=O)CCC(=O)NCc1ccc(C)cc1)C2 1.46%, COc1ccccc1-c1nnc(C2CCN(C(=O)c3ccc(Cl)cc3)CC2)o1 -11.8%, Cc1ccc(Cn2c(CNC(=O)c3cccc(C)c3)nc3ccccc32)cc1 2.76%, CCC(=O)N1CCc2cc(Br)cc(S(=O)(=O)CCC(=O)NCc3ccc(F)cc3)c21 -3.72%, CC(=O)N1CCOc2cc(S(=O)(=O)N(C)Cc3ccccc3)c(Cl)cc21 3.93%, N#Cc1ccccc1NC(=O)c1cnc(N2CCOCC2)c2ccccc12 15.1%, CCc1ccc(N(C)S(=O)(=O)c2ccc3[nH]cc(C(=O)NCC4CCCO4)c(=O)c3c2)cc1 (stereo unspecified) -0.319%, COc1ccc(C)cc1NC(=O)CSc1nc(=O)n(Cc2ccccn2)c2c1CCC2 1.91%, Cc1oc(-c2ccc(C(=O)Nc3ccccc3F)cc2)nc1COc1ccccc1 3.84%, CCN1C(=O)C(Cc2nc3ccccc3c(=O)n2-c2ccccc2)c2cc(Br)ccc21 (stereo unspecified) -4.05%, CCc1ccc2nc(N3CCN(C(=O)C4CC4)CC3)sc2c1 -1.79%, CCOc1ccccc1NC(=O)Cn1c2ncccc2c(=O)n1-c1ccc(C)c(C)c1 5.15%, COc1ccc(CNc2oc(-c3ccc(COc4ccc(OC)cc4)o3)nc2C#N)cc1 1.19%, Cc1cccc(C)c1NC(=O)CN1C(=O)c2cccc3cccc1c23 8.89%, COc1ccc(C2C(=O)N(C3CCC(C)CC3)CC(=O)N2CCC2=CCCCC2)cc1OC (stereo unspecified) -3.96%, CC(=O)N1CCCc2cc(S(=O)(=O)Nc3ccc(C)c(F)c3)ccc21 2.07%, Cc1oc2c(c(C)cc3oc(=O)c(CC(=O)NCc4ccc(F)cc4)c(C)c32)c1C -0.84%, Cc1cccc(NC(=O)Cn2c(=O)oc3cc(S(=O)(=O)NC4CCCC4)ccc32)c1 -2.98%, CCOC(=O)c1ccc(NS(=O)(=O)c2ccc3[nH]c4c(c3c2)CCCCC4)cc1 -5.09%, Cc1cc(C)c(OCC(=O)N(Cc2cccc(F)c2)Cc2ccco2)c(C)c1 4%, CC(=O)N1CCc2cc(S(=O)(=O)NC(Cc3ccccc3)C(=O)Nc3ccc(Cl)cc3)ccc21 (stereo unspecified) 10.9%, CCc1nn(CC(=O)N2CCN(c3cccc(C(F)(F)F)c3)CC2)c(=O)c2cccn12 -1.19%, COc1ccc2c(c1)c1c(c(=O)n(-c3ccccc3C)c(=O)n1Cc1c(F)cccc1Cl)n2C 1.99%, Cc1cccc(Nc2c3c(nc4nncn24)CCC3)c1C -20.8%, CC1Cc2ccccc2N1NC(=O)c1ccc(Cl)c(S(N)(=O)=O)c1 (stereo unspecified) 6.53%, CCOC(=O)C1(C)C=C(Nc2ccc(C(=O)O)cc2)C(=O)N1c1ccc(C(=O)O)cc1 (stereo unspecified) -7.25%, CCCCN(C)C(=O)Cn1c(SCC(=O)Nc2ccc(C)c(C)c2)nc2ccccc21 1.35%, CCOC(=O)c1c(C)oc2nc(C)nc(NCC3CCN(Cc4cccc(Cl)c4)CC3)c12 0.718%, Cc1cccc(NC(=O)C2CCCN(c3nc4ccccc4s3)C2)c1C (stereo unspecified) -20.4%, Cc1cc(Nc2ccc(F)cc2)nc(-n2nc(C)cc2C)n1 0.313%, O=S(=O)(Nc1ccc(Cl)cc1)c1cccc(S(=O)(=O)c2ccc(Cl)c(Cl)c2)c1 3.45%, CC(=O)c1ccc(N2C(=O)N(Cc3cc(C)ccc3C)c3ccccc3S2(=O)=O)cc1 7.42%, COc1cccc2cc(-c3nc(-c4ccc(C)cc4)c(C)s3)c(=O)oc12 -6.98%, CCOc1ccccc1NC(=O)CN1C=NS(=O)(=O)c2ccccc21 -6.72%, Cc1ccc(CCNC(=O)c2ccc(CS(=O)(=O)Cc3ccccc3F)o2)cc1 6.14%, COc1ccc(NC(=O)Cn2c(=O)n(-c3ccc(C)c(C)c3)c(=O)c3c(C)c(C)sc32)cc1 24.2%, COc1ccc(NC(=O)Cc2noc3ccc(C)cc23)cc1Cl 11.6%, CCc1cccc(C)c1NC(=O)CCn1nc(C)c2c(C)n(-c3ccccc3)nc2c1=O -2.7%, CCc1ccc2c(c1)c(=O)c(S(=O)(=O)c1ccccc1)cn2CC(=O)Nc1ccc(OC)cc1 27.8%, COCC(=O)N1c2nc(-c3ccco3)nn2C2(CCCCC2)[C@@H]2CCCC[C@@H]21 3.59%, Cc1ccc(NC(=O)Cn2nnc(C(=O)NCCc3ccccc3)c2N)cc1Cl -2.45%, CCOC(=O)c1c(S(=O)(=O)N2CCC(C(=O)Nc3cccc(C)n3)CC2)c(C)n(C)c1C -2.44%

outcome, inactive:
CCn1cc(C(=O)NCc2ccc(C)cc2)c(=O)c2cc(S(=O)(=O)N3CCc4ccccc4C3)ccc21, O=C(CN1CCCN(Cc2ccc(F)cc2)S1(=O)=O)NCc1ccccc1Cl, CCOc1ccc(NC(=O)CN2C(=O)C3(SCC(=O)N3c3ccc(F)cc3)c3ccccc32)cc1 (stereo unspecified), CCOC(=O)C1CCCN(C(=O)Cn2nc(CC)n3c(cc4occc43)c2=O)C1 (stereo unspecified), Cc1ccc(NC(=O)CCNS(=O)(=O)c2ccc3c(c2)CCCC(=O)N3)cc1, COc1cccc(N2CC(NC(=O)C3CC3)CC2=O)c1 (stereo unspecified), CC1=C(C(=O)Nc2cccc(C(F)(F)F)c2)C(c2ccccc2)n2ncnc2N1 (stereo unspecified)
